Laboratory results taken from PubChem BioAssay (Tox21).
“And” between values parts separate entries of the source, which are not always exact repeats. Identical values can stand only once. The shares of active, inactive and inconclusive entries below differ from those in the screen. Where the call is inconclusive, the potency comes from a doubtful curve fit. The source made the active and inactive calls. Calls come from the whole dose curve; as a rule, active = well fitted curve in the direction sought with a large enough effect in the repeat runs; inconclusive = weak or mixed curves; inactive = no such curve, though single readings can be large; an effect the other way counts as inactive or inconclusive.
% is set by controls: 0 for no effect and ±100 for the full control effect; potency is the fitted concentration of half-maximal effect; tags give direction and shape of the fitted curve.

Assay: qHTS RealTime-Glo MT Cell Viability Assay in HEK293 cells - 40 hour (AID 1224874); note: nearly all actives have a fitted effect of over 50% in size
Details: RealTime-Glo luminescence; max response: stronger effect = lower value
In short: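 Luminescence readout at each listed time point; HEK293, 600 cells/well, RealTime-Glo MT reagent added with cells; compounds pinned (23 nL in DMSO) after 5 h at 37 C; continuous culture at 37 C.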
In the case of `FC(F)(F)C(F)(F)C(F)(F)C(F)(F)C(F)(F)C(F)(F)C(F)(F)C(F)(F)C(F)(F)C(F)(F)F`, the max response is reported as inactive: -1.44%.
With `O=C1Nc2ccccc2C1=O` the Potency was inconclusive: 21.7 µM [rising, partial curve].
In the case of `O=C1NC(=O)C(c2ccccc2)(c2ccccc2)N1`, the Potency is reported as inconclusive: 54.9 µM [cytotoxic, single point] and inconclusive: 24.5 µM [cytotoxic, partial curve].
With `c1ccc2c(c1)[nH]c1ccccc12` the Potency was inconclusive: 30.4 µM [cytotoxic, partial curve].

Assay: A CellTox Green Cytotoxicity Assay to monitor cytotoxicity in HepG2 cells - 16 hour (AID 1224876); note: nearly all actives have a fitted effect of over 45% in size
Details: CellTox Green fluorescence; series mostly up to 76.8 µM; cytotoxicity increase: at the top concentration
In short: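 HepG2, 600 cells/well premixed w/ CellTox Green; 5 h settle, 37 C/5% CO2; pintool cpd add (DMSO); 37 C, 40 h; fluorescence read at 0, 8, 16, 24, 32, 40 h.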
With `O=C(O)C(=O)Nc1cccc(-c2nn[nH]n2)c1` the “cytotoxicity increase” value was inactive: -9.36% [at 35.3 µM].
With `Clc1ccc2c(c1)Nc1ccccc1S2` the Potency was inconclusive: 10.7 µM [activator, single point].
In the case of `Nc1ccc(C(=O)N2CC3CC(CN(Cc4ccccc4)C3)C2)cc1`, the “cytotoxicity increase” value is reported as inactive: -10.8% [at 35.3 µM].
